Consider 22 molecules from article PMC12040169 (PLOS Biology, 2025).

Some of the results follow.

For this assay, the system named is T1, C. trachomatis L2/434/Bu expressing GFP (CTL2-GFP).
T1 construct: L2/434/Bu GFP intracellular growth in HeLa cells
The arrangement: species or system HeLa; C. trachomatis total inclusion area by high-content imaging, normalised to DMSO. The conditions noted are these: total inclusion area; 28.5 h, 10 µM; inhibitor. The essentials:
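Following bulk GFP and resorufin fluorescence reads, infected cells were fixed, Hoechst-stained and imaged on a high-content platform. Inclusion total area and number per well served as growth proxies; nuclei counts indicated host viability. MICs were derived as for the fluorescence assay.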
Take `Cc1nnc(S)n1CC(=O)n1c2c(c3ccccc31)CCCC2` [CBK266244]: the “% of control remaining” value came to 95.8871. Regarding `Cc1[nH]c(C(=O)NCCc2ccco2)c(C)c1C(=O)OC(C)C` [CBK295180], the “% of control remaining” value is recorded as 119.357. Regarding `Cc1nccn1CCN(C)C(=O)C1CC2C=CC1C21CC1` (stereo not shown) [CBK282084], the “% of control remaining” value came out at 93.904. As for `CCn1c(C(O)c2ccc(OCc3ccccc3)cc2)nc2ccccc21` (stereo not shown) [CBK263458], the “% of control remaining” value turned out to be 110.587.

As for `O=C(Nc1ccccc1)N1C[C@@H]2OCC(=O)N(Cc3ccc(F)cc3)[C@@H]2C1` [CBK289683], the “% of control remaining” value came to 95.6939. In the case of `O=C(NCCc1c[nH]cn1)Nc1cccc(C(F)(F)F)c1` [CBK269822], the “% of control remaining” value came to 82.5109. For the molecule `Cc1ccc(NC(=O)CSc2nnc(N)[nH]2)cc1` [CBK034301], the “% of control remaining” value is 90.9572.

In the case of `CCOc1ccc(S(=O)(=O)N2CCCN(Cc3ccc(F)cc3F)CC2)c2cccnc12` [CBK062757], the “% of control remaining” value is listed as 78.4846. As to `COc1cc(OC)nc(N2CCN(c3nccnc3NS(=O)(=O)C3CC3)CC2)n1` [CBK048698], the “% of control remaining” value was found to be 89.469.

`NS(=O)(=O)c1ccc(NC(=O)c2cc3c(n(-c4ccccc4)c2=O)CCCC3=O)cc1` [CBK266467]: the “% of control remaining” value is listed as 122.678.

With `COc1cc(CN2CCNCC2)c2ccn(S(=O)(=O)c3ccccc3C#N)c2c1` [CBK144486T], the “% of control remaining” value was determined as 79.5748. Consider `CS(=O)(=O)N1CC2(CCN(CC3COc4ccccc4O3)CC2)c2ccccc21` (stereo not shown) [CBK115461T], for which the “% of control remaining” value worked out at 70.3252. On to `CCOC(=O)C1CCCN(C(=O)Cn2c(C)nc3ccccc3c2=O)C1` (stereo not shown) [CBK306150], for which the “% of control remaining” value was determined as 57.6634. In the case of `Cc1cccc(C(=O)Nc2nnc(-c3ccncc3)o2)c1` [CBK287430], the “% of control remaining” value was determined as 104.811.

Turning to `O=C(Nc1ccc(F)cc1)c1ccccc1NS(=O)(=O)c1ccc(Br)cc1` [CBK045438], the “% of control remaining” value worked out at 54.1873. Take `Cc1cc(C[C@@H]2COC[C@H]2NCc2ccccc2C(F)(F)F)on1` [CBK285464]: the “% of control remaining” value was found to be 108.74. Turning to `O=C(Nc1ccccc1)Nc1ccc([N+](=O)[O-])cc1` [CBK016975], the “% of control remaining” value is 78.5419. Turning to `O=C1CN(C(=O)Nc2ccc(Cl)cc2)CCN1` [CBK155861], the “% of control remaining” value was 100.286.

With `CCn1nc(-c2ccc(Cl)cc2)c2c(=O)n(C)c(=O)[nH]c21` [CBK287845], the “% of control remaining” value turned out to be 81.1691.

For the molecule `CC(C)C(=O)Nc1cc2cccnc2nc1-c1ccc(N(C)C)cc1` [CBK073650], the “% of control remaining” value came to 106.594. As for `CCN(CCCNC(=O)c1cc(-c2cccnc2)nc2ccccc12)c1cccc(C)c1` [CBK294465], the “% of control remaining” value was 105.871. The value for `COc1ccc(CN2CCN(c3nccnc3OC3CCCCC3)CC2)cc1` [CBK082830T] was 84.119.
